# Measurements published in paper PMC4336329 (PLoS ONE, 2015).
# The whole screen tested about 310,000 compounds, of which about 2,200 (0.71%) showed an effect of 50% or more. The effect is printed as a negative number. The list shows a part of the results.
# Biological target: human ether-à-go-go-related gene (hERG) potassium channel (human, UniProt Q12809)
# Experiment: primary screen, population patch clamp on CHO cells stably expressing hERG
# human ether-à-go-go-related gene (hERG) potassium channel, sequence (Q12809 whole entry, looked up): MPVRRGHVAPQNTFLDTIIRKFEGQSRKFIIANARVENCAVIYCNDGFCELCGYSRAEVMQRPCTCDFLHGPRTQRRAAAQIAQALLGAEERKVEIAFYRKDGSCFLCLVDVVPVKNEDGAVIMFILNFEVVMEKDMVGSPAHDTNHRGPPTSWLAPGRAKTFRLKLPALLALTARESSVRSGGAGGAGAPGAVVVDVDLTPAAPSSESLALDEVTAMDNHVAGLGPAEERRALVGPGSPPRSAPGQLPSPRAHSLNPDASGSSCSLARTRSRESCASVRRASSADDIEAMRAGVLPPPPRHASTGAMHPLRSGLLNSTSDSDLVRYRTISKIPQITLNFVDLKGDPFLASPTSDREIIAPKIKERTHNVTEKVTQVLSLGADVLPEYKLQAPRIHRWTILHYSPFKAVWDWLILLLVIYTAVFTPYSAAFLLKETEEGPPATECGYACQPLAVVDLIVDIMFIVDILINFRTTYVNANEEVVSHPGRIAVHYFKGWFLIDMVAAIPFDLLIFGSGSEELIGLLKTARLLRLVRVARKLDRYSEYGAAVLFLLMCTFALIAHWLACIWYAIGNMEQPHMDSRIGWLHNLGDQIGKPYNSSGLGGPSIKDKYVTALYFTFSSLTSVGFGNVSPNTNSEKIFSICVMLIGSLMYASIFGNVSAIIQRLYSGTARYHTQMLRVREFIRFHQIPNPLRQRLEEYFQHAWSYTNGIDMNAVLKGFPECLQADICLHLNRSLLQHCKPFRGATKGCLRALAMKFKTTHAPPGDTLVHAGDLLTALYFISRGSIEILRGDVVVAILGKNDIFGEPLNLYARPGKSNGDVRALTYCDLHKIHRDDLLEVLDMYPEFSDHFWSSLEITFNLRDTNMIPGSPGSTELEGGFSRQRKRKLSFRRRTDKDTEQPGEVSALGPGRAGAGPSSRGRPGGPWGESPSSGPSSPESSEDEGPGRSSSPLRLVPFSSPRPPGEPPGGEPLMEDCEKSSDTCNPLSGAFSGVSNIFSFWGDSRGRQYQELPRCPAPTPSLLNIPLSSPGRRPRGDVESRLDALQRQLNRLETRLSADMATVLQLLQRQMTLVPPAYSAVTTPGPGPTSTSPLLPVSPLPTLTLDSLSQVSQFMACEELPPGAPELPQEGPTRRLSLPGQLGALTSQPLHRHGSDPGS
row,SMILES,"hERG current change (%, negative = inhibition) at 1uM"
1,COc1ccc(S(=O)(=O)N2CCCCCC2)cc1C(=O)OCc1cccc(OC)c1OC,13.7%
2,CS(=O)(=O)NCCSCc1c(F)cccc1Cl,9.1%
3,Cc1ccccc1-n1ncc(C(C)NC(=O)c2ccccc2)c1C (stereo not shown),1.01%
4,O=C(CCC(=O)N1CCOc2ccccc21)N1CCOCC1,1.86%
5,Cc1ccc(-c2nc(C#N)c(NCc3ccco3)o2)cc1,11.1%
6,CCCn1c(C(C)Nc2nc(C)cs2)nc2cc(Cl)c(Cl)cc21 (stereo not shown),6.1%
7,CC(C)(C)NC(=O)CCSc1nnc(-c2ccco2)o1,3.27%
8,COc1cc(OC)cc(C(=O)NC2CCN(Cc3nnnn3Cc3ccc(F)cc3)CC2)c1,1.43%
9,COc1ccc(Br)cc1/C=C/C(=O)NC(=S)Nc1ccc(CN2CCOCC2)cc1,13.9%
10,Cc1cc(NC(=O)CSc2nc3cc(Cl)ccc3o2)no1,13.1%
11,O=c1[nH]c(N2CCOCC2)nc2ccccc12,7.8%
12,CCCN1CCC(N(CCc2ccccc2)Cc2ccccc2)CC1,-73.2%
13,CCOC(=O)c1[nH]c(C(=O)O)c(CCN(CC)CC)c1C,12.6%
14,Cc1c(C(=O)N2CCOCC2)c(S(=O)(=O)Nc2cccc(Br)c2)c(C)n1C,8.82%
15,CCOc1ccc(S(=O)(=O)NN=C2CCN(C(C)=O)CC2)cc1,2.55%
16,CCOC(=O)c1cccc(S(=O)(=O)N2CCOCC2)c1,16.7%
17,O=S(=O)(Nc1ccccc1O)c1cccc2cccnc12,10.7%
18,CC(C)=CCCC(C)NC(=O)NC1CCCCC1 (stereo not shown),2.42%
19,S=C1NC2=C(CCC/C2=C\c2ccccc2)C(c2ccccc2)N1 (stereo not shown),12.8%
20,COc1ccc(S(=O)(=O)Oc2ccc3ccccc3c2)cc1,10.7%
21,O=C(Nc1ccccc1C(F)(F)F)N1CCC(N2CCCCC2)CC1,6.21%
22,COCCN(C(=O)c1ccco1)c1nnc(-c2ccc(OC)c(OC)c2)s1,8.45%
23,Cn1cc2cc(NC(N)=S)ccc2n1,12.6%

row,SMILES,"hERG current change (%, negative = inhibition) at 1uM"
1,CCc1ccc(C(=O)c2cncc(Br)c2)cc1,-0.414%
2,COc1ccc(NC(=O)N2CCN(c3ccc([N+](=O)[O-])cc3)CC2)cc1OC,-63.2%
3,Cc1cc(CC(C)C)n(-c2nc3ccccc3c(=O)n2OCC(N)=O)n1,-0.371%
4,COc1cc(/C=C/C(=O)O)cc(S(=O)(=O)NCC2CCCO2)c1OC (stereo not shown),10.1%
5,Cc1ccc(Cl)c(OCC(=O)Nc2cccnc2)c1,7.71%
6,Cc1nn(C(C)C(=O)Nc2ccc3c(c2)OCO3)c(C)c1[N+](=O)[O-] (stereo not shown),-1.75%
7,COc1cc(NC(=O)COC(=O)CO/N=C(\C)c2ccc3c(c2)OCO3)cc(OC)c1,15.6%
8,CN(C)c1cc(N/N=C/c2ccccc2C(F)(F)F)nc(N(C)C)n1,1.88%
9,COc1cccc(-n2c(Cc3cc(=O)[nH]c(=O)[nH]3)nnc2SCC(=O)NC2CCCC2)c1,11.9%
10,O=C(c1ccncc1)N1CCN(S(=O)(=O)c2cc(C(F)(F)F)cc(C(F)(F)F)c2)CC1,0.128%
11,COc1ccc(NC(=O)COC(=O)CCCOc2ccc(Cl)cc2Cl)cc1Cl,20.8%
12,CC(C)=CCN1CCN(CCC2=C(C)CCCC2(C)C)CC1CCO (stereo not shown),-10.9%
13,O=C(Nc1ccc(-c2nnn(CC(=O)N3CCN(C(=O)c4ccco4)CC3)n2)cc1)c1ccc(F)cc1,8.12%
14,Cc1cccc(CSC2=NCCN2C(=O)c2ccc(Br)o2)c1,6.86%
15,CC(=O)Nc1ccc(OC(=O)N2CCCCC2)cc1,-1.64%
16,CCCC(=O)C1=C(O)C(c2cccc(Oc3ccccc3)c2)CCC1=O (stereo not shown),2.54%
17,O=C(NCc1ccncc1)c1nc(-c2ccc(C(F)(F)F)cc2)no1,3.37%
18,C=CCn1cc(C(=O)OC)c(=O)c2cc(S(=O)(=O)N3CCC(C)CC3)ccc21,-14.7%
19,COc1ccc(NC(=O)COC(=O)CNC(=O)c2cc(OC)c(OC)c(OC)c2)cc1,11.5%
20,CC1CCC(N2CCN(S(C)(=O)=O)CC2)CC1.O=C(O)C(=O)O (stereo not shown),14.8%
21,CCCCCCCCC(=O)Nc1cc(C)ccc1OC,9.02%
22,COC(=O)C(C)(C)NC(=O)c1cccs1,5.48%
23,NC(=O)C1CCCN(CCc2ccccc2)C1 (stereo not shown),12.5%
